Results from the supplement of paper PMC9588766.
Structures can show the parent of a compound that is named as a salt. Over roughly 1,900 compounds, “cell viability of compound + 1 nM pemigatinib relative to pemigatinib-only (DMSO) wells” has its median near 0.95; the lowest 2% begin near 0.22. The list shows a part of the results.

Test system: PDC-DUC18828
Experiment: cell viability of compound + 1 nM pemigatinib relative to pemigatinib-only (DMSO) wells (fraction); PDC-DUC18828 is a patient-derived cholangiocarcinoma cell line; higher = less growth inhibition
Settings: first compound 1 µM; pemigatinib concentration 1 nM; 72 h
Description: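 Selleck Bioactive library screen in the patient-derived FGFR2 fusion-positive ICC cell line PDC-DUC18828 (500 cells/well). Each compound was tested at 1 uM with 1 nM pemigatinib, in triplicate, for 72 h. Viability was read by CellTiter-Glo and normalised to plate DMSO controls. Value is the paper's averaged normalised viability.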

Point of comparison: `CCN(Cc1ccncc1)C(=O)C(CO)c1ccccc1` (stereo unspecified) [Tropicamide] + CCN1C(=O)N(c2c(F)c(OC)cc(OC)c2F)Cc2cnc3[nH]c(CN4CCOCC4)cc3c21 [pemigatinib], cell viability 0.957. Against it:
- CO[C@@H]1[C@@H](OC(N)=O)[C@@H](O)[C@H](Oc2ccc3c(O)c(NC(=O)c4ccc(O)c(CC=C(C)C)c4)c(=O)oc3c2C)OC1(C)C [Novobiocin Sodium] + CCN1C(=O)N(c2c(F)c(OC)cc(OC)c2F)Cc2cnc3[nH]c(CN4CCOCC4)cc3c21 [pemigatinib] — higher, 0.992
- CCN1CCN(C(=O)N[C@@H](C(=O)N[C@@H]2C(=O)N3[C@@H]2SC(C)(C)[C@@H]3C(=O)O)c2ccccc2)C(=O)C1=O [Piperacillin Sodium] + CCN1C(=O)N(c2c(F)c(OC)cc(OC)c2F)Cc2cnc3[nH]c(CN4CCOCC4)cc3c21 [pemigatinib] — lower, 0.943
- NC(=O)c1cnc2[nH]ccc2c1N[C@@H]1[C@@H]2CC3C[C@H]1C[C@@](O)(C3)C2 + CCN1C(=O)N(c2c(F)c(OC)cc(OC)c2F)Cc2cnc3[nH]c(CN4CCOCC4)cc3c21 [pemigatinib] — lower, 0.926
- CN1CCCC(n2nc(Cc3ccc(Cl)cc3)c3ccccc3c2=O)CC1 (stereo unspecified) [Azelastine HCl] + CCN1C(=O)N(c2c(F)c(OC)cc(OC)c2F)Cc2cnc3[nH]c(CN4CCOCC4)cc3c21 [pemigatinib] — higher, 0.98
- CCCC(=O)Nc1ncnc2c1ncn2[C@@H]1O[C@@H]2COP(=O)(O)O[C@H]2[C@H]1OC(=O)CCC [Dibutyryl-cAMP (Bucladesine)] + CCN1C(=O)N(c2c(F)c(OC)cc(OC)c2F)Cc2cnc3[nH]c(CN4CCOCC4)cc3c21 [pemigatinib] — lower, 0.931
- CN(C)CCC[C@@]1(c2ccc(F)cc2)OCc2cc(C#N)ccc21 [Escitalopram Oxalate] + CCN1C(=O)N(c2c(F)c(OC)cc(OC)c2F)Cc2cnc3[nH]c(CN4CCOCC4)cc3c21 [pemigatinib] — lower, 0.913
- CC1=CC(=O)NS(=O)(=O)O1 [Acesulfame Potassium] + CCN1C(=O)N(c2c(F)c(OC)cc(OC)c2F)Cc2cnc3[nH]c(CN4CCOCC4)cc3c21 [pemigatinib] — lower, 0.924
- NC(=O)N/N=C/c1ccc([N+](=O)[O-])o1 [Nitrofural] + CCN1C(=O)N(c2c(F)c(OC)cc(OC)c2F)Cc2cnc3[nH]c(CN4CCOCC4)cc3c21 [pemigatinib] — higher, 0.978
- O=C(O[C@H]1CN2CCC1CC2)N1CCc2ccccc2[C@@H]1c1ccccc1 [Solifenacin succinate] + CCN1C(=O)N(c2c(F)c(OC)cc(OC)c2F)Cc2cnc3[nH]c(CN4CCOCC4)cc3c21 [pemigatinib] — lower, 0.927
- O=S(=O)(c1ccccc1)c1cnc2c(N3CCNCC3)cccc2c1 + CCN1C(=O)N(c2c(F)c(OC)cc(OC)c2F)Cc2cnc3[nH]c(CN4CCOCC4)cc3c21 [pemigatinib] — lower, 0.937
- CC(C)C[C@H](NC(=O)[C@H](CCc1ccccc1)NC(=O)CN1CCOCC1)C(=O)N[C@@H](Cc1ccccc1)C(=O)N[C@@H](CC(C)C)C(=O)[C@@]1(C)CO1 [Carfilzomib (PR-171)] + CCN1C(=O)N(c2c(F)c(OC)cc(OC)c2F)Cc2cnc3[nH]c(CN4CCOCC4)cc3c21 [pemigatinib] — lower, 0.0221
- CC(=O)OCOC(=O)CN(CC(=O)OCOC(C)=O)c1ccccc1OCCOc1ccccc1N(CC(=O)OCOC(C)=O)CC(=O)OCOC(C)=O + CCN1C(=O)N(c2c(F)c(OC)cc(OC)c2F)Cc2cnc3[nH]c(CN4CCOCC4)cc3c21 [pemigatinib] — lower, 0.921
- CC(C)(C#N)c1ccc(N2C(=O)OCc3cnc4ccc(-c5cnc6ccccc6c5)cc4c32)cc1 + CCN1C(=O)N(c2c(F)c(OC)cc(OC)c2F)Cc2cnc3[nH]c(CN4CCOCC4)cc3c21 [pemigatinib] — lower, 0.95
- CC(=O)Oc1cccc2c1C(=O)c1c(OC(C)=O)cc(C(=O)O)cc1C2=O [Diacerein] + CCN1C(=O)N(c2c(F)c(OC)cc(OC)c2F)Cc2cnc3[nH]c(CN4CCOCC4)cc3c21 [pemigatinib] — higher, 0.976
- CCN(CC)Cc1ccc2cc(COC(=O)Nc3ccc(C(=O)NO)cc3)ccc2c1 [Givinostat (ITF2357)] + CCN1C(=O)N(c2c(F)c(OC)cc(OC)c2F)Cc2cnc3[nH]c(CN4CCOCC4)cc3c21 [pemigatinib] — lower, 0.422
- N=C(N)NC(=N)N1CCOCC1 [Moroxydine HCl] + CCN1C(=O)N(c2c(F)c(OC)cc(OC)c2F)Cc2cnc3[nH]c(CN4CCOCC4)cc3c21 [pemigatinib] — lower, 0.941
- OC[C@H]1O[C@@H](Oc2ccc(O)cc2)[C@H](O)[C@@H](O)[C@@H]1O [Arbutin] + CCN1C(=O)N(c2c(F)c(OC)cc(OC)c2F)Cc2cnc3[nH]c(CN4CCOCC4)cc3c21 [pemigatinib] — higher, 0.995
- O=C(c1ccc(C(=O)N2CCC(N3CCCC3)CC2)c(Nc2ccccc2)c1)N1CCC(N2CCCC2)CC1 + CCN1C(=O)N(c2c(F)c(OC)cc(OC)c2F)Cc2cnc3[nH]c(CN4CCOCC4)cc3c21 [pemigatinib] — lower, 0.954
- COc1ccc(NS(=O)(=O)c2ccc(N)cc2)nn1 [Sulfamethoxypyridazine] + CCN1C(=O)N(c2c(F)c(OC)cc(OC)c2F)Cc2cnc3[nH]c(CN4CCOCC4)cc3c21 [pemigatinib] — higher, 0.988
- Nc1ccc(C(=O)NCC(=O)O)cc1 [4-Aminohippuric Acid] + CCN1C(=O)N(c2c(F)c(OC)cc(OC)c2F)Cc2cnc3[nH]c(CN4CCOCC4)cc3c21 [pemigatinib] — lower, 0.914
- CCCC(=O)O[C@]1(C(=O)COC(C)=O)CC[C@H]2[C@@H]3C[C@H](F)C4=CC(=O)C=C[C@]4(C)[C@@]3(F)[C@@H](O)C[C@@]21C [Difluprednate] + CCN1C(=O)N(c2c(F)c(OC)cc(OC)c2F)Cc2cnc3[nH]c(CN4CCOCC4)cc3c21 [pemigatinib] — lower, 0.847
- Cn1c(=O)cc(N2CCC[C@@H](N)C2)n(Cc2cc(F)ccc2C#N)c1=O [Trelagliptin] + CCN1C(=O)N(c2c(F)c(OC)cc(OC)c2F)Cc2cnc3[nH]c(CN4CCOCC4)cc3c21 [pemigatinib] — lower, 0.934
- N#Cc1ccc(-c2c(-c3ncn[nH]3)sc(N3CCOCC3)c2C#N)c(F)c1 + CCN1C(=O)N(c2c(F)c(OC)cc(OC)c2F)Cc2cnc3[nH]c(CN4CCOCC4)cc3c21 [pemigatinib] — lower, 0.589
- C=C1c2cccc(O)c2C(=O)C2=C(O)[C@]3(O)C(=O)C(C(N)=O)=C(O)[C@@H](N(C)C)[C@@H]3[C@@H](O)[C@H]12 [Methacycline HCl] + CCN1C(=O)N(c2c(F)c(OC)cc(OC)c2F)Cc2cnc3[nH]c(CN4CCOCC4)cc3c21 [pemigatinib] — higher, 0.965
- Clc1cccc(-c2nnnn2Cc2cccnc2)c1Cl + CCN1C(=O)N(c2c(F)c(OC)cc(OC)c2F)Cc2cnc3[nH]c(CN4CCOCC4)cc3c21 [pemigatinib] — lower, 0.933
- COc1cccc(-c2ccc(NC(=O)C3=C(C(=O)O)CCC3)c(F)c2)c1 [Vidofludimus] + CCN1C(=O)N(c2c(F)c(OC)cc(OC)c2F)Cc2cnc3[nH]c(CN4CCOCC4)cc3c21 [pemigatinib] — higher, 0.972
- Cc1cc(=O)oc2cc(O)ccc12 [4-Methylumbelliferone (4-MU)] + CCN1C(=O)N(c2c(F)c(OC)cc(OC)c2F)Cc2cnc3[nH]c(CN4CCOCC4)cc3c21 [pemigatinib] — higher, 0.979
- C/C=C1/[C@H](O[C@@H]2O[C@H](CO)[C@@H](O)[C@H](O)[C@H]2O)OC=C(C(=O)OC)[C@H]1CC(=O)OCCc1ccc(O)c(O)c1 [Oleuropein] + CCN1C(=O)N(c2c(F)c(OC)cc(OC)c2F)Cc2cnc3[nH]c(CN4CCOCC4)cc3c21 [pemigatinib] — lower, 0.905
- CC(C)(C)Cn1c(N)nc2ccc(-c3[nH]c(C(C)(C)C)nc3-c3ccc(F)cc3)nc21 + CCN1C(=O)N(c2c(F)c(OC)cc(OC)c2F)Cc2cnc3[nH]c(CN4CCOCC4)cc3c21 [pemigatinib] — lower, 0.859
- CCCN[C@H]1CCc2nc(N)sc2C1 [Pramipexole] + CCN1C(=O)N(c2c(F)c(OC)cc(OC)c2F)Cc2cnc3[nH]c(CN4CCOCC4)cc3c21 [pemigatinib] — higher, 0.995
- O=C(NC1CCN(CCCCC2(C(=O)NCC(F)(F)F)c3ccccc3-c3ccccc32)CC1)c1ccccc1-c1ccc(C(F)(F)F)cc1 [Lomitapide Mesylate] + CCN1C(=O)N(c2c(F)c(OC)cc(OC)c2F)Cc2cnc3[nH]c(CN4CCOCC4)cc3c21 [pemigatinib] — lower, 0.881
- COc1ccc(C(=O)CC2(O)C(=O)Nc3c(Cl)ccc(Cl)c32)cc1 (stereo unspecified) + CCN1C(=O)N(c2c(F)c(OC)cc(OC)c2F)Cc2cnc3[nH]c(CN4CCOCC4)cc3c21 [pemigatinib] — lower, 0.74
- CCOC(=O)c1ccc(OC(=O)CCCCCNC(=N)N)cc1 [Gabexate Mesylate] + CCN1C(=O)N(c2c(F)c(OC)cc(OC)c2F)Cc2cnc3[nH]c(CN4CCOCC4)cc3c21 [pemigatinib] — higher, 1.02
- Cc1c(-c2ccnn2C)cc(C(=O)NCc2ccc(S(C)(=O)=O)cn2)c(=O)n1-c1cccc(C(F)(F)F)c1 [Alvelestat (AZD9668)] + CCN1C(=O)N(c2c(F)c(OC)cc(OC)c2F)Cc2cnc3[nH]c(CN4CCOCC4)cc3c21 [pemigatinib] — higher, 0.965
- COc1cc(/C=C/C(=O)N2CCN(CC(=O)N3CCCC3)CC2)cc(OC)c1OC [Cinepazide maleate] + CCN1C(=O)N(c2c(F)c(OC)cc(OC)c2F)Cc2cnc3[nH]c(CN4CCOCC4)cc3c21 [pemigatinib] — lower, 0.931
